{"source": "PubChem BioAssay AID1461", "about": "(National Center for Advancing Translational Sciences (NCATS), 2008)", "note": "Hit rate of the full screen: of about 220,000 compounds, about 2,300 (1%) were called active. Inconclusive results, whose numbers are uncertain, are shown with a selection of clear calls. Calls come from the whole dose curve; as a rule, active = well fitted inhibition curve with a large enough effect; inconclusive = small, poorly fitted or top-dose-only effect, or effect the other way; inactive = no such curve, though single readings can be large or run the other way. No potency is given beside an inconclusive call; the fits are too rough. Potency is the fitted concentration of half-maximal effect; tags give direction and shape of the fitted curve."}
{"molecular_target": "Neuropeptide S receptor (Homo sapiens) (UniProt Q6W5P4)", "sequence (Q6W5P4 whole entry, looked up)": "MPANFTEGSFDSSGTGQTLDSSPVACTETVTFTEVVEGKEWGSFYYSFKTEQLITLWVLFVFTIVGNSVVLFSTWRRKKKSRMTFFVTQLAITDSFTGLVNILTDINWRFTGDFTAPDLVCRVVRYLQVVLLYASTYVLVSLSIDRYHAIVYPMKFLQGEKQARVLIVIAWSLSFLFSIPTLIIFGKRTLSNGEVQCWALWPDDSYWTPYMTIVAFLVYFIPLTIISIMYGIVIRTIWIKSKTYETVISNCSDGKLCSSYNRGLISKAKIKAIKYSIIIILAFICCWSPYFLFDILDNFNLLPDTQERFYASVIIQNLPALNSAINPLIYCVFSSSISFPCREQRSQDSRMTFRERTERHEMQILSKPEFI", "experiment": "qHTS Assay for Antagonists of the Neuropeptide S Receptor: cAMP Signal Transduction; note: nearly all actives have a fitted effect of over 50% in size", "details": "CHO-NPSR cells, cAMP TR-FRET, antagonist mode; series mostly up to 38.3 µM"}
{"smiles": "CCSc1ncnc2c1sc1nc(-c3ccco3)c3c(c12)CC(C)(C)OC3", "Potency": "inactive"}
{"smiles": "CCOC(=O)CCCCC(=O)c1[nH]c(=O)[nH]c1CSCCO", "Potency": "inactive"}
{"smiles": "CC(C)(C)OC(=O)COc1cc(OCC(=O)OC(C)(C)C)c2c(=O)cc(-c3ccccc3)oc2c1", "Potency": "active: 6.31 µM"}
{"smiles": "COc1ccccc1Nc1nc2cc(C)ccc2cc1C#N", "Potency": "inconclusive [activator, partial curve]"}
{"smiles": "CCN(CC)c1ccc(NC(=O)c2cccnc2)cc1", "Potency": "inconclusive [inhibitor, single point]"}
{"smiles": "O=C(CSC1=NCCS1)N1CCc2ccccc21", "Potency": "inactive"}
{"smiles": "COc1cc(OC)c(OC)cc1CN(C)C(c1ccccc1)c1nnnn1-c1ccccc1C", "note": "(stereo not drawn)", "Potency": "inconclusive [inhibitor, single point]"}
{"smiles": "Cn1cc(C(=O)CCl)c2ccccc21", "Potency": "inconclusive [activator, single point]"}
{"smiles": "O=C(Nc1ccccc1)C1=C[C@H](c2ccc(Br)cc2)C[C@H](OCc2ccc(CO)cc2)O1", "Potency": "inconclusive [activator, partial curve]"}
{"smiles": "S=C(NC1CCCCC1)N1CCOCCOCCN(C(=S)NC2CCCCC2)CCOCCOCC1", "Potency": "inconclusive [inhibitor, single point]"}
{"smiles": "CC(=O)Oc1cc2c3c(c1)/C(=C1/SC(=S)NC1=O)C(=O)N3C(C)(C)C=C2C", "Potency": "inconclusive [activator, partial curve]"}
{"smiles": "CCOC(=O)/C=C/S(=O)(=O)c1ccc(NC(C)=O)cc1", "Potency": "inconclusive [inhibitor, partial curve, poor fit]"}
{"smiles": "CC1Cc2nc(SCC(=O)Nc3ccc4c(c3)OCCO4)n(C)c(=O)c2S1", "note": "(stereo not drawn)", "Potency": "inactive"}
{"smiles": "O=C(N/N=C/c1ccc([N+](=O)[O-])s1)c1ccccc1Br", "Potency": "inactive"}
{"smiles": "CCC(CO)n1c(SCc2cc(=O)oc3cc(C)ccc23)nc2ccccc2c1=O", "note": "(stereo not drawn)", "Potency": "inconclusive [inhibitor, single point]"}
{"smiles": "COc1cc(OC)c2c(C)cc(=O)oc2c1C(CCN1CCOCC1)c1ccc2c(c1)OCO2", "note": "(stereo not drawn)", "Potency": "inactive"}
{"smiles": "CC(C)(C)c1ccc(NC(=O)COc2ccc(-n3ccnc3)cc2)cc1", "Potency": "inconclusive [inhibitor, single point]"}
{"smiles": "Cc1cccc(NC(=O)CC2C(=O)NCCN2C(=S)Nc2ccccc2)c1", "note": "(stereo not drawn)", "Potency": "inconclusive [inhibitor, single point]"}
{"smiles": "O=C(O)c1cccc(NC(=S)N/N=C/c2ccccc2OCc2cccc(Br)c2)c1", "Potency": "inconclusive [inhibitor, single point]"}
{"smiles": "Cn1c(CCNC(=O)c2ccco2)nc2cc(NC(=O)C3CCCCC3)ccc21", "Potency": "inactive"}
{"smiles": "N#Cc1c2c(c(-n3cnc4ccccc43)n3c1nc1ccccc13)CCC2", "Potency": "inconclusive [inhibitor, full curve, poor fit]"}
{"smiles": "c1ccc(-c2c(-c3ccccc3)n(Cc3ccco3)c3ncnc(NCCCn4ccnc4)c23)cc1", "Potency": "active: 25.1 µM"}
{"smiles": "Cc1ccc(-n2c(N)c(C#N)c(-c3ccc(Cl)cc3)c(C#N)c2=O)cc1", "Potency": "inconclusive [activator, single point]"}
{"smiles": "CC(C)c1ccc(C2C3=C(CC(C)(C)CC3=O)NC3=C2C(=O)c2ccccc23)cc1", "note": "(stereo not drawn)", "Potency": "inconclusive [inhibitor, partial curve]"}
{"smiles": "Cc1ccc(S(=O)(=O)N(CC(=O)NCCC2=CCCCC2)Cc2ccccc2F)cc1", "Potency": "inconclusive [inhibitor, partial curve]"}
{"smiles": "CC(C)OC(=O)c1nnc(-c2ccccc2)nc1OC(C)C", "Potency": "inconclusive [inhibitor, single point]"}
{"smiles": "S=C(Nc1cccc(Cl)c1)N(CCCN1CCCC1)Cc1cccn1Cc1ccc(Cl)cc1", "Potency": "active: 10 µM"}
{"smiles": "CCOC(=O)c1ccc(N2Cc3ccccc3C2=NC(=O)c2cccs2)cc1", "Potency": "inconclusive [inhibitor, single point]"}
{"smiles": "CC(C)(C)n1nnnc1C(c1ccc(F)cc1)N(Cc1ccc(F)cc1)Cc1ccco1", "note": "(stereo not drawn)", "Potency": "inconclusive [inhibitor, partial curve]"}
{"smiles": "Cc1ccccc1-c1nc(CN(C)C(C)c2ccon2)c(C)o1", "note": "(stereo not drawn)", "Potency": "inactive"}
{"smiles": "O=C(CCCSc1nc(-c2ccco2)cc(C(F)(F)F)n1)NCc1cccs1", "Potency": "inconclusive [inhibitor, single point]"}
{"smiles": "O=S(=O)(c1ccccc1)c1cnc(-c2cccnc2)nc1-c1ccc(Cl)cc1Cl", "Potency": "inconclusive [inhibitor, partial curve, poor fit]"}
{"smiles": "CSc1cnn(-c2ccccc2)c(=O)c1SC", "Potency": "inconclusive [inhibitor, partial curve]"}
{"smiles": "CN(C)c1ccc(C(=O)OCC(=O)NCC2CCCO2)cc1", "note": "(stereo not drawn)", "Potency": "inactive"}
{"smiles": "Nn1c(SC/C=C/c2ccccc2)nnc1-c1ccccn1", "Potency": "inactive"}
{"smiles": "O=C(NC(c1ccccc1)c1c(O)ccc2ccccc12)c1ccccc1Cl", "note": "(stereo not drawn)", "Potency": "inconclusive [inhibitor, single point]"}
{"smiles": "C=CCN1C(=O)/C(=C\\c2cc(Br)c(OCc3ccccn3)c(OC)c2)SC1=S", "Potency": "inconclusive [inhibitor, single point]"}
{"smiles": "CC1=C(C(=O)OCC(C)C)C(c2cccc(F)c2)N2C(=O)C(C)SC2=N1", "note": "(stereo not drawn)", "Potency": "inconclusive [inhibitor, partial curve, poor fit]"}
{"smiles": "Cc1ccc(/C=N/NC(=O)C(c2ccncc2)N2CCOCC2)cc1", "note": "(stereo not drawn)", "Potency": "inconclusive [activator, single point]"}
{"smiles": "CCn1c(=O)cc(SCC(=O)NCCCN2CCN(c3ccccc3F)CC2)c2ccccc21", "Potency": "inconclusive [inhibitor, single point]"}
{"smiles": "O=C(c1ccccc1)c1ccccc1NC(=O)C1CCCN1Cc1ccccc1", "note": "(stereo not drawn)", "Potency": "inconclusive [activator, single point]"}
{"smiles": "COCCNC(=O)C(c1ccc(C)o1)N(C(=O)c1snc(C(N)=O)c1N)c1cccc(C)c1", "note": "(stereo not drawn)", "Potency": "inconclusive [inhibitor, partial curve]"}
{"smiles": "CCOC(=O)c1ccc(N/C=C/C(=O)c2ccc(OC)cc2)cc1", "Potency": "inactive"}
